Reference: PubChem BioAssay AID588342 (National Center for Advancing Translational Sciences (NCATS), 2011)
Among all 360,000 compounds or so, about 25,000 (6.9%) were called active. Inconclusive results, whose numbers are uncertain, are shown with a selection of clear calls. Calls follow the shape of the dose curve; as a rule, active = well fitted inhibition curve with a large enough effect; inconclusive = small, poorly fitted or top-dose-only effect; inactive = flat fitted curve, though single readings scatter. A potency beside an inconclusive call is a rough fit, not a confirmed value.

Target: Luciferin 4-monooxygenase (Photinus pyralis) (UniProt P08659)
Assay: qHTS profiling assay for firefly luciferase inhibitor/activator using purifed enzyme and Km concentrations of substrates (counterscreen for miR-21 project); also: nearly all actives have a fitted effect of over 55% in size;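 as to activity change, negative = inhibition: plate controls were vehicle for no effect and reference inhibitor for full effect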
Details: purified FLuc, luminescence inhibition; activity change, negative = inhibition: at 57.5 µM (top of the series)
Method in brief: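 Biochemical qHTS of compounds, final roughly 60 µM downward over six points, against 10 nM purified firefly luciferase using Km concentrations of substrates (10 uM D-luciferin, 10 uM ATP) in Tris acetate pH 7.5 buffer; luminescence output.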
Potency is read from the fitted curve at half-maximal effect; tags tell the direction and shape of the fitted curve.

Chain of UniProt P08659 (P08659 whole entry, looked up): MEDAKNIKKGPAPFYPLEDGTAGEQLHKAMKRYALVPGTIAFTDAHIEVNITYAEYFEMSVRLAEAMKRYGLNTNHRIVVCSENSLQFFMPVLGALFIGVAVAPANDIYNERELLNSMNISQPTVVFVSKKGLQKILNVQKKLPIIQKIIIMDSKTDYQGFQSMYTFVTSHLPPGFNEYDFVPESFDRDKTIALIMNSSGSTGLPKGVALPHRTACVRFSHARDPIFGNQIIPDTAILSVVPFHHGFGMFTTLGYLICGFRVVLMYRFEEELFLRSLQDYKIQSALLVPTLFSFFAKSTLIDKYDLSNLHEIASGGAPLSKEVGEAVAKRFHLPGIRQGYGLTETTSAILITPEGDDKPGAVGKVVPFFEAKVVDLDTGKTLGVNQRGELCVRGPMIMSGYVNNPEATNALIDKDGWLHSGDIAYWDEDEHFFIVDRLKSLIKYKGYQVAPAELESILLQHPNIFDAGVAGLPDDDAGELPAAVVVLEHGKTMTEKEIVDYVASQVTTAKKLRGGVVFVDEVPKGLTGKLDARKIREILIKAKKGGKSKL

Q: For `COc1ccc(Cl)cc1S(=O)(=O)Nc1cccc(-c2ccc(N3CCOCC3)nn2)c1`, which Potency is on record?
A: active: 19 µM

Q: How did the Potency turn out when `Cc1cccc(C(=O)OCC(=O)NC2CCCCCCC2)c1` was run?
A: inconclusive: 26.9 µM [inhibitor, partial curve, poor fit]

Q: With `COc1cccc(CN(C(=O)c2cc3ccccc3oc2=O)C2CC2)c1` as the molecule, how does the Potency read?
A: inconclusive: 16.9 µM [inhibitor, partial curve]

Q: `COc1ccccc1CNC(=O)C1CCN(Cc2nc(-c3cccc(Cl)c3)oc2C)CC1` was tested. Which Potency did it give?
A: inconclusive: 30.1 µM [inhibitor, partial curve, poor fit]

Q: How did the Potency turn out when `O=C(CNC(=O)c1ccco1)OCc1cccc(Cl)c1` was run?
A: inconclusive: 26.9 µM [inhibitor, partial curve, poor fit]

Q: Which Potency does the source give for `CCOC(=O)C(=Cc1c[nH]c2ccc(S(=O)(=O)N(C)C)cc12)C(=O)OCC` here?
A: inconclusive: 37.9 µM [inhibitor, single point]

Q: How did the Potency turn out when `COc1ccc(C(=O)C[n+]2cn(C(F)F)c3ccccc32)c(F)c1` was run?
A: inconclusive: 16.9 µM [inhibitor, partial curve]

Q: For `Cc1ccc(-n2ncc(Cl)c2C(=O)NCc2ccccc2)cc1`, which Potency is on record?
A: active: 10.7 µM

Q: With `COc1ccc(S(=O)(=O)N2CCCC(C(=O)Nc3ccc(NC(=O)c4ccccn4)cc3)C2)cc1` (stereo unspecified) as the molecule, how does the Potency read?
A: inconclusive: 26.9 µM [inhibitor, single point]

Q: With `Cc1ccc(Oc2coc3cc(O)ccc3c2=O)cc1` as the molecule, how does the Potency read?
A: inconclusive: 21.3 µM [inhibitor, single point]

Q: How did the “activity change, negative = inhibition” value turn out when `c1ccc(-c2c3ccccc3nc3[nH]c4ccccc4c23)cc1` was run?
A: inactive: -22%

Q: With `CN(c1ccccc1)c1ccc(/C=N/N2CCOCC2)cc1` as the molecule, how does the Potency read?
A: active: 1.69 µM

Q: Which Potency does the source give for `Cc1cc(O)c(-c2cc(O)c(C)cc2O)cc1O` here?
A: inconclusive: 10.7 µM [inhibitor, partial curve]

Q: With `N#Cc1c(NC(=O)C2CC2)sc2c1CCCCC2` as the molecule, how does the Potency read?
A: inconclusive: 21.3 µM [inhibitor, partial curve, poor fit]

Q: `O=C(Nc1ccc(Cl)cn1)c1cccc2c(Br)cccc12` was tested. Which Potency did it give?
A: inconclusive: 9.53 µM [inhibitor, partial curve, poor fit]

Q: With `CCc1nn(CC(=O)NC2CC2)c(=O)c2cc3ccccc3n12` as the molecule, how does the “activity change, negative = inhibition” value read?
A: inactive: 5.59%

Q: How did the Potency turn out when `O=C(COC(=O)CCCN1C(=O)c2cccc3cccc(c23)C1=O)Nc1cccc(Br)c1` was run?
A: inconclusive: 15.1 µM [inhibitor, partial curve, poor fit]

Q: How did the “activity change, negative = inhibition” value turn out when `COc1cccc(CNC(=O)c2c3c(nc4ccccc24)C(=O)N(C2CCCCC2)C3)c1` was run?
A: inactive: 3.48%

Q: With `Cn1cc(C(=O)NCc2ccccc2)c(=O)c2cc(S(=O)(=O)N3CCCCCC3)ccc21` as the molecule, how does the “activity change, negative = inhibition” value read?
A: inactive: -7.65%

Q: For `O=C(O)COc1ccccc1/C=N/NC(=O)CSc1nnc(SCc2ccccc2)s1`, which Potency is on record?
A: inconclusive: 10.7 µM [inhibitor, partial curve, poor fit]

Q: How did the Potency turn out when `CCCCn1c(C)cc2c(c1=O)C1O[C@](c3ccc(OC)cc3)(Cc3cc(OC)c(OC)cc31)O2` was run?
A: inconclusive: 4.37 µM [inhibitor, partial curve, poor fit]

Q: With `COc1ccc(-c2cccc(NS(=O)(=O)c3cc([N+](=O)[O-])c(C)c([N+](=O)[O-])c3)c2)nn1` as the molecule, how does the Potency read?
A: inconclusive: 37.9 µM [inhibitor, partial curve, poor fit]

Q: For `CC1CCN(c2nc3ccc(C(=O)NCc4ccc(Cl)cc4)cc3s2)CC1`, which Potency is on record?
A: active: 10.7 µM

Q: `O=C(OCCOc1cccc(Cl)c1)c1ccc2ncsc2c1` was tested. Which Potency did it give?
A: inconclusive: 37.9 µM [inhibitor, single point]

Q: Which “activity change, negative = inhibition” value does the source give for `COc1cc(NC(=O)c2cc3nc(-c4ccccc4)cc(-c4ccccc4)n3n2)c(OC)cc1Cl` here?
A: inactive: -0.629%

Q: For `C/C(Cn1nnc([N+](=O)[O-])n1)=N\NC(=O)c1ccccc1O`, which Potency is on record?
A: active: 10.7 µM

Q: `Cc1oc(-c2cccc(Cl)c2)nc1CSCC(=O)O` was tested. Which Potency did it give?
A: inconclusive: 19 µM [inhibitor, partial curve]

Q: Which Potency does the source give for `Cn1c(-c2ccccc2)cnc1SCC(=O)N1CCCCC1` here?
A: active: 1.2 µM

Q: How did the Potency turn out when `O=C(Nc1nc(-c2ccc(Cl)s2)cs1)c1ccco1` was run?
A: active: 15.1 µM

Q: Which “activity change, negative = inhibition” value does the source give for `Cc1cccc(Cn2c(NCC(C)O)nc3c2c(=O)n(C)c(=O)n3C)c1` (stereo unspecified) here?
A: inactive: 6.26%

Q: `O=C1CCC(=O)N1c1ccc(NCCc2ccccc2F)c([N+](=O)[O-])c1` was tested. Which Potency did it give?
A: inconclusive: 37.9 µM [inhibitor, partial curve, poor fit]

Q: Which Potency does the source give for `Fc1cccc2sc(Nc3nc4ccccc4s3)nc12` here?
A: inconclusive: 2.69 µM [inhibitor, partial curve]

Q: `CCN(C(=O)/C=C/c1ccc(OC)cc1)C1CCCCC1` was tested. Which Potency did it give?
A: inconclusive: 26.9 µM [inhibitor, partial curve, poor fit]

Q: Which Potency does the source give for `N#C/C(=C\c1cccnc1)C(=O)Nc1ccc(SC(F)F)cc1` here?
A: inconclusive: 15.1 µM [inhibitor, partial curve, poor fit]

Q: How did the Potency turn out when `CC(Sc1nncs1)C(=O)Nc1ccc2c(c1)OCCO2` (stereo unspecified) was run?
A: inconclusive: 30.1 µM [inhibitor, partial curve, poor fit]

Q: For `COc1ccc(NC(=O)C(=S)NC2CCCCC2)cc1`, which Potency is on record?
A: active: 5.36 µM

Q: How did the Potency turn out when `Cc1ccnc(NC(=O)c2cccc(S(=O)(=O)N3CCOCC3)c2)c1` was run?
A: active: 16.9 µM

Q: For `C/C=C(/C)C(=O)Nc1cccc(C2=NOC3(C2)C[C@H](C(N)=O)N(C(=O)Cc2ccc([N+](=O)[O-])cc2)C3)c1` (stereo partly specified), which “activity change, negative = inhibition” value is on record?
A: inactive: 4.84%

Q: With `Cc1ccc(S(=O)(=O)N2CCN(C(=O)CC(C)C)CC2)cc1` as the molecule, how does the Potency read?
A: active: 15.1 µM

Q: Which Potency does the source give for `Cc1ccc(-c2nn(-c3ccccc3)cc2/C=N/n2c(-c3cccs3)n[nH]c2=S)cc1` here?
A: inconclusive: 26.9 µM [inhibitor, single point]

Q: `C#CCOc1ccc(/C=C2/C(=O)NN(c3ccc(F)cc3)C2=O)cc1OC` was tested. Which Potency did it give?
A: active: 1.9 µM

Q: Which Potency does the source give for `COc1ccc(CN2C(=O)c3ccccc3C(/C=N/OCc3ccc(Cl)cc3)C2=O)cc1` (stereo unspecified) here?
A: active: 21.3 µM

Q: `O=C(NCc1cc(F)ccc1F)C1CCC(=O)N(C2CCCCCC2)C1` (stereo unspecified) was tested. Which Potency did it give?
A: inconclusive: 26.9 µM [inhibitor, single point]

Q: For `CCCCC(=O)Nc1ccc(OCc2cc(=O)n3ccc(C)cc3n2)cc1`, which “activity change, negative = inhibition” value is on record?
A: inactive: 3.52%

Q: For `COc1ccc(NC(=O)c2ccc(NC(=O)c3cccs3)cc2)cc1`, which “activity change, negative = inhibition” value is on record?
A: inactive: -3.05%

Q: How did the Potency turn out when `Cc1oncc1C(=O)Nc1ccc(C(F)(F)F)cc1` was run?
A: inconclusive: 15.1 µM [inhibitor, partial curve]

Q: `COc1ccccc1NC(=S)NNC(=O)c1nn(C)c(C)c1Cl` was tested. Which Potency did it give?
A: inconclusive: 21.3 µM [inhibitor, partial curve, poor fit]

Q: `Oc1ccc(Nc2nc(-c3cccs3)cs2)cc1` was tested. Which Potency did it give?
A: inconclusive: 12 µM [inhibitor, partial curve]

Q: `Cc1cccc(NC(=O)CN2C(=O)CCc3ccccc32)c1C` was tested. Which Potency did it give?
A: inconclusive: 10.7 µM [inhibitor, partial curve]

Q: `Cc1ccc(-c2nc3ccccc3[nH]2)cc1NC(=O)c1ccc2c(c1)OCO2` was tested. Which Potency did it give?
A: active: 10.7 µM

Q: `Cc1nn(-c2ccccc2)c(Cl)c1/C=N/NC(=O)CNc1n[nH]c(=O)[nH]c1=O` was tested. Which Potency did it give?
A: inconclusive: 21.3 µM [inhibitor, single point]

Q: `Cc1cc(-c2ccccc2)nc(N/N=C/c2ccc(O)cc2O)n1` was tested. Which Potency did it give?
A: inconclusive: 9.53 µM [inhibitor, partial curve, poor fit]

Q: For `CCOC(=O)c1ccc(NC(=O)c2cnccn2)cc1`, which Potency is on record?
A: inconclusive: 21.3 µM [inhibitor, partial curve]

Q: For `C(#CC1CCCCC1)c1ccc2c(c1)COc1c3ccccc3nn1-2`, which Potency is on record?
A: active: 4.78 µM

Q: With `O=[N+]([O-])c1cccc(/C=N/Nc2ccccn2)c1` as the molecule, how does the Potency read?
A: active: 3.01 µM

Q: For `CCc1ccc(CNC(=O)C2CCN(c3nnc(-n4c(C)ccc4C)s3)CC2)cc1`, which “activity change, negative = inhibition” value is on record?
A: inactive: -10.7%

Q: How did the Potency turn out when `O=[N+]([O-])c1ccc(C(c2sc3nc(-c4ccco4)nn3c2O)N2CCC3(CC2)OCCO3)cc1` (stereo unspecified) was run?
A: inconclusive: 16.9 µM [inhibitor, partial curve]

Q: `CC(C)c1ccc(OCC(=O)Nc2cc(-c3nc4ncccc4o3)ccc2Cl)cc1` was tested. Which “activity change, negative = inhibition” value did it give?
A: inactive: 0.549%

Q: Which Potency does the source give for `Cn1ncc2c(NNC(=O)c3ccc(Cl)c(Cl)c3)ncnc21` here?
A: inconclusive: 19 µM [inhibitor, partial curve]

Q: With `O=C(Nc1cccc(NC(=O)c2ccco2)c1)c1ccc([N+](=O)[O-])cc1` as the molecule, how does the “activity change, negative = inhibition” value read?
A: inactive: 2.62%

Q: How did the Potency turn out when `O=C(O)c1cccnc1Nc1cccc(C(F)(F)F)c1` was run?
A: inconclusive: 15.1 µM [inhibitor, partial curve]

Q: With `O=C(Nc1nc(=O)n(C(=O)C2CC2)s1)c1ccccc1` as the molecule, how does the Potency read?
A: inconclusive: 37.9 µM [inhibitor, single point]

Q: With `O=C(N/N=C/C(Br)=C/c1ccccc1)c1cccs1` as the molecule, how does the Potency read?
A: active: 1.51 µM

Q: With `COc1ccc(NC(C)=O)cc1S(=O)(=O)Nc1ccccc1C(=O)NCCc1ccccc1` as the molecule, how does the Potency read?
A: active: 16.9 µM

Q: Which Potency does the source give for `CCCCCCNC(=O)Nc1ccccc1` here?
A: inconclusive: 19 µM [inhibitor, partial curve]

Q: With `Cc1nc2ccc(Cl)cc2nc(C)/c1=N\O` as the molecule, how does the Potency read?
A: inconclusive: 23.9 µM [inhibitor, single point]

Q: Which Potency does the source give for `COc1ccc2c3n([n+]([O-])c2c1)CCN=C3c1ccc(Cl)cc1` here?
A: inconclusive: 37.9 µM [inhibitor, partial curve, poor fit]

Q: `COc1ccc(N2CCN(C(=O)CNC(=O)c3ccccc3Cl)CC2)cc1` was tested. Which “activity change, negative = inhibition” value did it give?
A: inactive: 1.96%

Q: `COc1ccc(S(=O)(=O)N2c3cc(C)ccc3OCC2C(C)(C)C)cc1` (stereo unspecified) was tested. Which “activity change, negative = inhibition” value did it give?
A: inactive: 7.21%

Q: For `CC(=O)Nc1nc2ccc(NC(=O)c3ccco3)cc2s1`, which Potency is on record?
A: inconclusive: 13.5 µM [inhibitor, partial curve]

Q: For `COc1ccc(OCC(=O)Nc2cc(S(=O)(=O)N3CCCC3)ccc2Cl)cc1`, which “activity change, negative = inhibition” value is on record?
A: inactive: -0.272%
